Assay results taken from the supplement of paper PMC7125110.
± gives the standard error. This sample is rich in variants without activity.

B1: glmS ribozyme (parent)
chain: AUAAAAGCGCCAGAACUACAGAAAUGUAGUUGACGAGGAGGAGGUUUAUCGAAUUUUCGGCGGAUGCCUCCAAA

Tests used:
Settings in all cases: with glucosamine-6-phosphate
glucosamine-6-phosphate [1] = variants of: B1; assay: self-cleavage kobs at 160 uM GlcN6P; higher = faster cleavage; RNA array
Method in brief: (§1)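 The measurements used barcoded ribozyme variants on sequenced MiSeq chips, transcribed in situ by E. coli RNA polymerase and tracked at 37 °C with a hybridised Cy3 probe. Glucosamine-6-phosphate, 40 μM to 10 mM in HEPES/KCl/Mg(OAc)2 buffer, was flowed in while tiles were imaged over ~14 h. Baseline-normalised signals, also normalised to non-cleaving reference variants, gave per-tile medians that were fit to one- or two-exponential decays for kobs. kcat and KM resulted from weighted Michaelis–Menten fits across concentrations.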

glucosamine-6-phosphate [2] = variants of: B1; assay: self-cleavage kobs at 2500 uM GlcN6P; higher = faster cleavage; RNA array
Method in brief: as §1

glucosamine-6-phosphate [3] = variants of: B1; assay: self-cleavage kobs at 10000 uM GlcN6P; higher = faster cleavage; RNA array
Method in brief: as §1

| Variant | self-cleavage kobs at 160 uM GlcN6P (glucosamine-6-phosphate [1]) [s⁻¹] | self-cleavage kobs at 2500 uM GlcN6P (glucosamine-6-phosphate [2]) [s⁻¹] | self-cleavage kobs at 10000 uM GlcN6P (glucosamine-6-phosphate [3]) [s⁻¹] |
| --- | --- | --- | --- |
| A14U G37A G38U | < 1e-05 |  |  |
| A14U U57C G66U | < 1e-05 |  |  |
| A15C A48G G63U A64C | < 1e-05 |  |  |
| A15C A52C C71U | < 1e-05 |  |  |
| A15C G43C U55G | < 1e-05 |  |  |
| A15C G60C C61U | < 1e-05 |  |  |
| A15C U31C G38A | < 1e-05 |  |  |
| A15C U31G C34G G35U | < 1e-05 |  |  |
| A15G C58G G63C C68G | 0.000162 ± 4.4e-05 |  |  |
| A15G G44U C71G | < 1e-05 | < 1e-05 |  |
| A15U A52U C58A C70U | < 1e-05 |  |  |
| A15U G32U G43U U56G C58A G59C | < 1e-05 | < 1e-05 |  |
| A15U G41A G66C | < 1e-05 |  |  |
| C16A A48G A52G A53G U57C | < 1e-05 |  |  |
| C16G A33C C58G G66A | < 1e-05 | < 1e-05 |  |
| C16G A39G C58U | < 1e-05 |  |  |
| C16G A39U U54C G62A G63U C70A | < 1e-05 | < 1e-05 |  |
| C16G G37A G43C | < 1e-05 | < 1e-05 |  |
| C16G G41U U54A | < 1e-05 |  |  |
| C16U G43U G60C | < 1e-05 | < 1e-05 |  |
| C16U U30C G35A G40U G44U | < 1e-05 | < 1e-05 |  |

| Variant | self-cleavage kobs at 160 uM GlcN6P (glucosamine-6-phosphate [1]) [s⁻¹] | self-cleavage kobs at 2500 uM GlcN6P (glucosamine-6-phosphate [2]) [s⁻¹] | self-cleavage kobs at 10000 uM GlcN6P (glucosamine-6-phosphate [3]) [s⁻¹] |
| --- | --- | --- | --- |
| C16U U55C | 0.00153 ± 0.00037 | 0.00585 ± 0.0013 |  |
| C19A G35A A48U U65A | < 1e-05 |  |  |
| C19A G44U | < 1e-05 |  |  |
| G26U A52G | 9.82e-05 ± 2.9e-05 |  |  |
| G29A A39G G44A C70A | < 1e-05 |  |  |
| G29A C58G U65G | < 1e-05 |  |  |
| G29A C58U | < 1e-05 |  |  |
| G29A G35C A36C | < 1e-05 |  |  |
| G29A U65C | < 1e-05 |  |  |
| G29C U31C A39C | < 1e-05 |  |  |
| G29U A42C C71U | < 1e-05 | < 1e-05 |  |
| G29U C34U G63U C68U C70A | < 1e-05 |  |  |
| G29U G51C A53G G63A U65G | < 1e-05 |  |  |
| G29U U57G | < 1e-05 |  |  |
| U30A A42U | < 1e-05 |  |  |
| U30A U54A C67U C68A | 3.56e-05 ± 1.7e-05 | 4.46e-05 ± 2.1e-05 |  |
| U30C G35U G40U A42G U47C | < 1e-05 |  |  |
| U30C G41C U49G G51U C58A | < 1e-05 |  |  |
| U30C G43U | < 1e-05 | < 1e-05 | < 1e-05 |
| U30C U31C G38A | < 1e-05 | < 1e-05 |  |
| U30C U54G C68A | 0.000132 ± 4.9e-05 |  |  |

| Variant | self-cleavage kobs at 160 uM GlcN6P (glucosamine-6-phosphate [1]) [s⁻¹] | self-cleavage kobs at 2500 uM GlcN6P (glucosamine-6-phosphate [2]) [s⁻¹] | self-cleavage kobs at 10000 uM GlcN6P (glucosamine-6-phosphate [3]) [s⁻¹] |
| --- | --- | --- | --- |
| U30G C58G A64C C67G C71G | 5.89e-05 ± 2e-05 |  |  |
| U30G G35C G60U C61A | < 1e-05 |  |  |
| U31A C50A G51U A53G | < 1e-05 |  |  |
| U31A C58A U65C | < 1e-05 |  |  |
| U31A G35C U54A A64U | < 1e-05 |  |  |
| U31A G44U A52U | < 1e-05 | < 1e-05 |  |
| U31A U49A G60A | < 1e-05 | < 1e-05 |  |
| U31C A36U A42U | < 1e-05 |  |  |
| U31C C58U | < 1e-05 | 2.64e-05 ± 1.3e-05 |  |
| U31C C61U C67G C70G | < 1e-05 |  |  |
| U31C G43A G51A | < 1e-05 |  |  |
| U31C U57C | < 1e-05 |  |  |
| U31G A33C G37C | < 1e-05 |  |  |
| U31G A33U G38U | < 1e-05 |  |  |
| U31G A53U C58U C71U | < 1e-05 |  |  |
| U31G G43A C71G | < 1e-05 |  |  |
| G32C A33U G63U | < 1e-05 |  |  |
| G32C C68U | < 1e-05 |  |  |
| G32C G40U A42U C61G | < 1e-05 |  |  |
| G32C G66A | < 1e-05 |  |  |
| G32C U47G | < 1e-05 |  |  |

| Variant | self-cleavage kobs at 160 uM GlcN6P (glucosamine-6-phosphate [1]) [s⁻¹] | self-cleavage kobs at 2500 uM GlcN6P (glucosamine-6-phosphate [2]) [s⁻¹] | self-cleavage kobs at 10000 uM GlcN6P (glucosamine-6-phosphate [3]) [s⁻¹] |
| --- | --- | --- | --- |
| G32C U47G G62U | < 1e-05 |  |  |
| G32C U54C | < 1e-05 |  |  |
| G32U A48C | < 1e-05 |  | < 1e-05 |
| G32U A48G C68U | < 1e-05 | < 1e-05 |  |
| G32U C34A G40C U57A G62U | < 1e-05 |  |  |
| G32U G51C | < 1e-05 | < 1e-05 |  |
| A33C A48U A64U | < 1e-05 |  |  |
| A33C G35C U45G A64C | < 1e-05 | < 1e-05 |  |
| A33C G38C G51C | < 1e-05 |  |  |
| A33C G41U C71G | < 1e-05 |  |  |
| A33C U47A U56G G60U C71G | < 1e-05 |  |  |
| A33C U49G | < 1e-05 |  |  |
| A33G A42G C71U | < 1e-05 | < 1e-05 |  |
| A33G A42U G59U | < 1e-05 |  |  |
| A33G A48U A52U | < 1e-05 |  |  |
| A33G C50A G62U G66U | < 1e-05 |  |  |
| A33G C67G C70A | 4.49e-05 ± 2.2e-05 |  |  |
| A33G G38A G40A | < 1e-05 | < 1e-05 | < 1e-05 |
